In all, about 280,000 compounds went through this assay and about 100 (0.036%) were called active. The inconclusive results got no clear call from the source; some entries with a clear call stand among them for comparison. Calls come from the whole dose curve; as a rule, active = well fitted inhibition curve with a large enough effect in the signal ratio, with a control signal flat (not every such curve was filed as active); inconclusive = small, poorly fitted or top-dose-only effect, or effect the other way, or a change in a side signal; inactive = no such curve, though single readings can be large or run the other way; the % refers to the signal ratio. A potency beside an inconclusive call is a rough fit, not a confirmed value. A note “side channel” means that the fit belongs to a control or component signal, not to the main read-out.
Molecular target: Muscleblind-like protein 1 (Homo sapiens) (UniProt Q9NR56)
UniProt Q9NR56, sequence (Q9NR56 whole entry, looked up): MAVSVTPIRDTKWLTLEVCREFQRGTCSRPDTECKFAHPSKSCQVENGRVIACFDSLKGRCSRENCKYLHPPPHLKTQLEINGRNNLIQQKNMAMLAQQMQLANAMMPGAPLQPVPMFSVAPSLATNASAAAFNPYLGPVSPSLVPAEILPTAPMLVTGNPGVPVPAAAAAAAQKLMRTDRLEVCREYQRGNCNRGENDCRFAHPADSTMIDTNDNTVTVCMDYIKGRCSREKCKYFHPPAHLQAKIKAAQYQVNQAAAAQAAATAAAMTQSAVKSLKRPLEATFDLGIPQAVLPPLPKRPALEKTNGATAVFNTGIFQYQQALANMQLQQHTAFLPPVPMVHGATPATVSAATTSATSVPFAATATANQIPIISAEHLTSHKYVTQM
Assay: qHTS Assay for Inhibitors of MBNL1-poly(CUG) RNA binding
Settings: TR-FRET MBNL1-His/biotin-(CUG)12 binding, 665/545 ratio; series mostly up to 57.5 µM
Outline: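 Ratiometric TR-FRET (665 over 545 nm, excitation 340 nm) tracks disruption of MBNL1-His/biotin-(CUG)12 complex after 60 min at room temperature, with compounds at 92 nM to 58 uM final.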
Potency is the fitted concentration of half-maximal effect; tags give direction and shape of the fitted curve or compound fluorescence and quenching.

Row | SMILES | Potency
1 | CCCn1nc(NC(=O)c2cccs2)c2cc3ccccc3nc21 | inconclusive: 8.91 µM [quencher, side channel, partial curve]
2 | Nc1ccc(-c2nc3nc(N)nc(N)c3nc2-c2ccc(N)cc2)cc1 | inconclusive: 3.98 µM [quencher, side channel, partial curve]
3 | CC1(C)CC(=O)C2=C(C1)NC1=C(C(=O)c3ccccc31)C2c1ccc(O)cc1 (configuration not stated) | inconclusive: 11.2 µM [quencher, side channel, partial curve]
4 | c1ccc(-c2nnc(CN3CCN(C(c4ccccc4)c4ccccc4)CC3)o2)cc1 | inactive
5 | CCOC(=O)C(C)Sc1ncnc2nc[nH]c12 (configuration not stated) | inconclusive: 0.1 µM [quencher, side channel, full curve, poor fit]
6 | CC1C/C(=C\c2ccccc2[N+](=O)[O-])c2nc3ccccc3c(C(=O)O)c2C1 (configuration not stated) | inconclusive: 31.6 µM [quencher, side channel, single point]
7 | C(=C\c1nc(N2CCCC2)c2ccccc2n1)/c1ccccc1 | inconclusive: 0.0891 µM [fluorescent, side channel, full curve]
8 | O=C(CSc1nc(-c2ccccc2)nc2c1Cc1ccccc1O2)Nc1ccc(C(=O)O)cc1 | inactive
9 | CC(=O)c1cccc(NC(=O)CCS(=O)(=O)c2cccc3nsnc23)c1 | inconclusive: 12.6 µM [quencher, side channel, partial curve]
10 | O=C(N/N=C/c1cc(Cl)cc([N+](=O)[O-])c1O)c1ccccc1NS(=O)(=O)c1cccs1 | inactive
11 | O=C1C(=O)N(CCN2CCOCC2)C(c2cccnc2)/C1=C(/O)c1ccc(Cl)cc1 (configuration not stated) | inconclusive: 25.1 µM [quencher, single point]
12 | O=C(NCc1cccnc1)C(=O)NCC1OCCN1S(=O)(=O)c1ccc(F)cc1 (configuration not stated) | inactive
13 | COc1ccc(N2Nc3n[nH]c(N)c3N2)cc1 | inconclusive: 0.794 µM [quencher, side channel, full curve, poor fit]
14 | O=C(NCc1ccco1)C(Cc1ccccc1)NS(=O)(=O)c1cccc2nsnc12 (configuration not stated) | inconclusive: 12.6 µM [quencher, side channel, partial curve]
15 | CCOC(=O)N1CCN(C(=O)CNC(=O)c2nn(-c3ccc(OC)c(Cl)c3)c(=O)c3ccccc23)CC1 | inconclusive: 39.8 µM [fluorescent, side channel, single point]
16 | Cc1ccc(/C=N/NC(=O)c2cccc(NC(=O)c3ccccc3Cl)c2)o1 | inconclusive: 28.2 µM [quencher, side channel, partial curve]
17 | CC(C)CCNC(=O)C1C2C=CC3(CN(Cc4ccccc4Cl)C(=O)C13)O2 (configuration not stated) | inconclusive: 0.158 µM [quencher, side channel, full curve, poor fit]
18 | O=c1[nH]nc(Sc2ncnc3sccc23)n1CCc1ccccc1 | inactive
19 | Cc1[nH]c(=O)[nH]c(=O)c1Sc1ccccc1[N+](=O)[O-] | inconclusive: 17.8 µM [quencher, side channel, partial curve]
20 | COc1ccc(N2CCN(c3ccc([N+](=O)[O-])nc3)CC2)cc1 | inconclusive: 8.91 µM [quencher, side channel, full curve]
21 | CC(C)c1ccc(NC(=O)c2ccc3c(c2)C(=O)N(Cc2cccnc2)C3=O)cc1 | inactive

Row | SMILES | Potency
22 | COc1ccc(/C=C/C(=O)Nc2ccccc2)cc1OC | inconclusive: 25.1 µM [quencher, side channel, single point]
23 | COc1ccc(-c2cc(C(=O)N3CCCc4ccccc43)no2)cc1OC | inactive
24 | Cc1cccc(S(=O)(=O)c2c(N)n(/N=C/c3ccco3)c3nc4ccccc4nc23)c1 | inactive
25 | COc1ccc(N(C(C)C(=O)N/N=C/c2ccc(OCC(C)C)cc2)S(C)(=O)=O)cc1 (configuration not stated) | inconclusive: 0.158 µM [quencher, side channel, full curve, poor fit]
26 | Fc1ccc(-c2csc(Nc3ccccn3)n2)c(F)c1 | inconclusive: 22.4 µM [quencher, side channel, single point]
27 | COc1ccccc1CNC(=O)CCc1ccccc1 | inactive
28 | CCn1c(SCc2ccc(Cl)cc2Cl)nc2nc3c(cc2c1=O)CCCC3 | inactive
29 | COc1cc(NC(=O)CSc2nnc(-c3cc(C)on3)o2)cc(OC)c1 | inactive
30 | O=C1NC(=Nc2ccccc2)c2c1cccc2[N+](=O)[O-] | inconclusive: 7.08 µM [quencher, side channel, partial curve]
31 | COc1cc(/C=C2\CCCc3c2nc2ccccc2c3C(=O)O)cc(Cl)c1O | inconclusive: 25.1 µM [quencher, side channel, partial curve]
32 | COC(=O)c1cc(C)sc1NC(=S)N1CCN(CCc2ccccc2)CC1 | inconclusive: 28.2 µM [fluorescent, side channel, single point]
33 | CC(C)N(Cc1nc(-c2ccccc2)no1)S(=O)(=O)c1ccccc1 | inactive
34 | CC(C)C(NS(=O)(=O)c1cccs1)C(=O)NCc1ccc2c(c1)OCO2 (configuration not stated) | inconclusive: 39.8 µM [quencher, side channel, single point]
35 | CC(=O)OCCNc1cc(SCc2ccco2)c2nonc2c1[N+](=O)[O-] | inconclusive: 4.47 µM [quencher, side channel, partial curve]
36 | CC(C(=O)N(C)Cc1ccccc1)N1CCN(C/C=C/c2ccccc2)CC1 (configuration not stated) | inactive
37 | Cn1nc(C(F)(F)F)c(-c2cccc(C(F)(F)F)c2)c1NC(=O)CSCC(=O)O | inactive
38 | CC(OC(=O)c1oc2ccccc2c1CSC1CCCCC1)C(=O)NC(N)=O (configuration not stated) | inconclusive: 39.8 µM [fluorescent, side channel, single point]
39 | CCN(CC)CCNC(C(=O)Nc1ccc([N+](=O)[O-])cc1Br)c1ccccc1 (configuration not stated) | inconclusive: 10 µM [quencher, partial curve]
40 | Oc1c(C(Nc2nc3ccccc3s2)c2ccco2)ccc2cccnc12 (configuration not stated) | inactive
41 | Cc1cccc(NCN2C(=O)C3C4C=CC(C4)C3C2=O)c1 (configuration not stated) | inactive
42 | O=C(NCCN1CCN(C(=O)c2ccc([N+](=O)[O-])cc2)CC1)C(=O)Nc1ccc(F)cc1 | inconclusive: 15.8 µM [quencher, side channel, partial curve]

Row | SMILES | Potency
43 | CC(=O)N=c1c(C#N)cc2c(=O)n3cccc(C)c3nc2n1CCCOC(C)C | inconclusive: 2.82 µM [quencher, full curve, poor fit]
44 | O=C1c2cccc3cccc(c23)C(=O)N1c1ccc2ncccc2c1 | inconclusive: 5.01 µM [quencher, side channel, partial curve]
45 | Cc1[nH]c2ccccc2c1CN1CCN(c2ccccn2)CC1 | inactive
46 | Cc1ccc(COC(=O)c2ccc3c(c2)C(=O)N(CCCN2CCOCC2)C3=O)cc1 | inconclusive: 15.8 µM [quencher, side channel, partial curve]
47 | CCOc1ccc(C(=O)OCCCN(C)C)cc1 | inconclusive: 2 µM [quencher, side channel, single point]
48 | CCOc1ccc(C(=O)Nc2ncn[nH]2)cc1 | inactive
49 | O=[N+]([O-])c1nn(-c2ccc3c(c2)OCCO3)n(O)c1=Nc1ccc(Cl)cc1 | inconclusive: 12.6 µM [quencher, side channel, partial curve]
50 | CCN(CC)S(=O)(=O)c1ccc(C(=O)NC2=C(C(=O)OC)SCC2)cc1 | inconclusive: 20 µM [quencher, side channel, partial curve]
51 | C=CCn1c(C)cc(C(=O)CN2C(=O)c3ccccc3C2=O)c1C | inconclusive: 20 µM [quencher, side channel, partial curve]
52 | Cn1c(=O)c(NC2CCCCC2)c2c3c(cccc31)C(=O)c1ccccc1-2 | inactive
53 | COc1cc(/C=N/NC(=O)c2nc(C)cc(C)n2)ccc1O | inconclusive: 28.2 µM [quencher, side channel, partial curve]
54 | CC(C)C(=O)N1CCN(c2ccc(NC(=O)c3cccs3)cc2Cl)CC1 | inactive
55 | CCCn1nc([N+](=O)[O-])c(C(C#N)c2nc3ccccc3s2)c(Cl)c1=O (configuration not stated) | inconclusive: 31.6 µM [quencher, side channel, partial curve]
56 | O=C(O)c1ccc2c(c1)C(=O)N(Cc1ccco1)C2=O | inconclusive: 25.1 µM [quencher, side channel, single point]
57 | O=C1CSC(=S)N1/N=C/c1c(F)cccc1F | inactive
58 | Cc1ncc(CO)c2cc(S(=O)(=O)c3ccc(F)cc3)c(=O)oc12 | inconclusive: 31.6 µM [quencher, side channel, single point]
59 | O=C(CCCN1C(=O)/C(=C\c2ccccc2)SC1=S)Nc1ccc(O)cc1 | inconclusive: 22.4 µM [quencher, side channel, single point]
60 | CC(=O)NCCc1nc2cc(NC(=O)c3cccc([N+](=O)[O-])c3)ccc2n1C | inconclusive: 12.6 µM [quencher, side channel, partial curve]
61 | CCN1CCN(Cc2ccc(NC(=O)c3ccc(C)c(NC(=O)c4nccnc4N)c3)cc2C(F)(F)F)CC1 | inconclusive: 31.6 µM [quencher, side channel, single point]
62 | O=C(CN1CCC(NC(=O)Nc2ccccc2)CC1)Nc1cccc([N+](=O)[O-])c1 | inconclusive: 28.2 µM [quencher, side channel, partial curve]

Reference: PubChem BioAssay AID2675 (National Center for Advancing Translational Sciences (NCATS), 2010)
